# Measured values: PMC4336329 (PLoS ONE, 2015)
# Screen size: about 310,000 compounds; about 2,200 (0.71%) showed an effect of 50% or more. The effect is printed as a negative number. This is one part of the list.
# Target: human ether-à-go-go-related gene (hERG) potassium channel (human, UniProt Q12809)
# Test: primary screen, population patch clamp on CHO cells stably expressing hERG
# Sequence of human ether-à-go-go-related gene (hERG) potassium channel (Q12809 whole entry, looked up): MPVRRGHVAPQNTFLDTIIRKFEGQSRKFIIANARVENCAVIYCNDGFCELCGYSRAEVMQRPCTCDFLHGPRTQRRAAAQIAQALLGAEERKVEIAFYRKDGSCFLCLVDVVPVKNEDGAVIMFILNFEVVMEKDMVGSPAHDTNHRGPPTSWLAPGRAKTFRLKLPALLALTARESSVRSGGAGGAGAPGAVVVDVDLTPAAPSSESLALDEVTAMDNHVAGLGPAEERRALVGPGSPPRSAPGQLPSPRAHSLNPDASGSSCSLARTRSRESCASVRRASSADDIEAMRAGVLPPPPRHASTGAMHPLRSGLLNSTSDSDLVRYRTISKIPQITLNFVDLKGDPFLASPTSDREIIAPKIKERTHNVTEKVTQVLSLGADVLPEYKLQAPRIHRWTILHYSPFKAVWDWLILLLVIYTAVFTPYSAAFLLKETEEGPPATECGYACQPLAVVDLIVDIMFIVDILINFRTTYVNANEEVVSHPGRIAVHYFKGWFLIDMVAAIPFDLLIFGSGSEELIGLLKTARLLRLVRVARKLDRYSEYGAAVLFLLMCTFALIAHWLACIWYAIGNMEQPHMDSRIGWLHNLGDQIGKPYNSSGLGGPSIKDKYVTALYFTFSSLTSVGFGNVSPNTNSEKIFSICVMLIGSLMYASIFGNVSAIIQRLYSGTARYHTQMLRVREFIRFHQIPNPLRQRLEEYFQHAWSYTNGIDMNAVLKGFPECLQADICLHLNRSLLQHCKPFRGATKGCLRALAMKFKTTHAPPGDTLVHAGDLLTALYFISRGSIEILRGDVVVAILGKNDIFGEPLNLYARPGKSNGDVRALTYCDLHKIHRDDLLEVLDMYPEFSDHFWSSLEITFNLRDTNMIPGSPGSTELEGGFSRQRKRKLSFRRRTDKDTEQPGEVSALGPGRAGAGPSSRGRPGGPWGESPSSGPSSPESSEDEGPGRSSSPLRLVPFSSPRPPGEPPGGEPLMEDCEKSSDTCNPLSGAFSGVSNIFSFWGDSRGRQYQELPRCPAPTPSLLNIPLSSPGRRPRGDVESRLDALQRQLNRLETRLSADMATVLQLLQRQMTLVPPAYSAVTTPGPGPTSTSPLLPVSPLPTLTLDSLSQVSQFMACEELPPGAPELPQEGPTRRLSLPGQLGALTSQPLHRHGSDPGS
row,Structure (SMILES),"hERG current change (%, negative = inhibition) at 1uM"
1,Cc1nn(-c2ccccc2)c(C)c1C(=O)OCC(=O)NC(=O)NC1CCCCC1,6.41%
2,O=CN1CCN(C(=O)C(=O)c2cn(CC(=O)N3CCCCC3)c3ccccc23)CC1,16.2%
3,CCC1(c2ccccc2)NC(=O)N(CC(=O)Nc2cccc(C#N)c2)C1=O (stereo not drawn),7.23%
4,COc1ccccc1N1CCN(S(=O)(=O)CCNC(=O)CC2CCCCC2)CC1,5.55%
5,Cc1noc(C)c1C(c1ccccc1)c1ccccc1,3.63%
6,O=[N+]([O-])c1ccccc1S(=O)(=O)N1CCN(c2ccccc2)CC1,7.9%
7,Cc1ccc2nc(NS(=O)(=O)c3cn(C)nc3C)sc2c1,1.52%
8,CC(C)CCNC(=O)CN(Cc1ccccc1Cl)C(=O)CCC(=O)Nc1ccccn1,1.91%
9,CC(NC(=O)c1cnc2n(c1=O)CCS2)c1ccccc1 (stereo not drawn),7.49%
10,Cc1ccc(S(=O)(=O)NCCC(=O)NCc2ccc3c(c2)OCO3)cc1C,1.37%
11,Cc1cc(NC(=O)c2cc(CC(C)C)on2)no1,14.3%
12,Nc1nc2c(ncn2CCC(CO)CO)c(=O)[nH]1,2.46%
13,CN(CC(N)=O)S(=O)(=O)c1ccc(F)cc1,-11.8%
14,Cc1cc(NC(=S)NC(=O)/C=C/c2ccc(S(=O)(=O)N3CCOCC3)cc2)ccc1Br,15.8%
15,O=C(c1coc2ccccc2c1=O)N1CCN(c2cccc(C(F)(F)F)c2)CC1,2.03%
16,Cc1ccc(Cl)cc1NS(=O)(=O)c1cc2[nH]c(=O)c(=O)[nH]c2cc1C,12.3%
17,COC(=O)COc1ccc2c(-c3cccc([N+](=O)[O-])c3)cc(=O)oc2c1,-2.05%
18,COc1ccc(N2CCN(C(=O)C(NC(=O)c3c(F)cccc3F)C(C)C)CC2)cc1 (stereo not drawn),8.88%
19,CC(C)NC(=O)c1ccccc1NC(=O)CCS(=O)(=O)Cc1ccccc1,4.55%
20,CCN1CCN(C(=O)c2nn(-c3ccc(OC)cc3)c(=O)c3c2c2ccccc2n3C)CC1,5.88%
21,CCc1nnc(NC(=O)c2csc3c2CCC(C)C3)s1 (stereo not drawn),0.835%
22,COc1ccc(Cl)cc1C(=O)Nc1ccc(NC(=O)C(C)C)cc1,126%
23,CCC(=O)Nc1ccc(C(=O)CSc2nnc(-c3cccnc3)o2)cc1,4.01%

row,Structure (SMILES),"hERG current change (%, negative = inhibition) at 1uM"
1,CCSC1=C(C#N)C(c2ccc(OC)c(OC)c2)CC(=O)N1 (stereo not drawn),10.7%
2,CC(=O)c1sc(NC(=O)c2ccccc2F)nc1-c1ccccc1,10.7%
3,CC(C)c1nnc(NC(=O)CSc2nc3ccccc3[nH]2)s1,12.4%
4,Cc1ccc(Cn2c(O)c(N=NC(=S)Nc3ccccc3F)c3ccccc32)cc1,16.7%
5,COc1ccc(CCNC(=O)c2oc3ccccc3c2C)cc1,5.41%
6,COc1ccc(OC)c(CN2CCC(CNC(=O)Nc3cccc(Cl)c3)CC2)c1,-26.3%
7,Cc1noc(C)c1COc1ccccc1C(=O)N1CCN(S(=O)(=O)c2cccc([N+](=O)[O-])c2)CC1,-1.43%
8,COc1ccc(NC(=O)CSc2nnc(-c3ccccc3Cl)n2Cc2ccco2)c(OC)c1,0.435%
9,O=C(CNc1n[nH]c(=O)[nH]c1=O)N/N=C/C1CC=CCC1 (stereo not drawn),3.87%
10,CCn1c(CNC(=O)c2ccco2)nnc1SCC(=O)Nc1cc(C)c(C)cc1Br,3.54%
11,Cl.OC(c1ccc(F)cc1)(C1CCCCC1)C(CN1CCOCC1)c1ccccc1 (stereo not drawn),12.9%
12,Cn1ccnc1C(=O)c1ccc(S(=O)(=O)N2CCCC2)cc1,16.4%
13,COc1cc2[nH]c(=S)nc(NCCC(C)C)c2cc1OC,13.8%
14,Cc1ccc(C(=O)Nc2ccccc2N2CCCCC2)cc1,9.06%
15,CC(=O)c1cccc(NC(=S)N2CCC(Cc3ccccc3)CC2)c1,17.3%
16,COc1cccc2c(=O)n(CC(=O)NCCc3ccccc3)ccc12,10.7%
17,Cc1cc(C)c(S(=O)(=O)N2CCCCC2C(=O)O)c(C)c1 (stereo not drawn),10.8%
18,COCCNC(=O)C1CC(c2cccc(OC)c2)=NO1 (stereo not drawn),-0.278%
19,Oc1[nH]c2ccccc2c1C1=NCCCC1,15.9%
20,CCOC(=O)C(NC(=O)c1ccccc1)(OCC1(CC)COC1)C(F)(F)F (stereo not drawn),-2.89%
21,CC(=O)NC(C1C(=O)CC(C)(C)CC1=O)(C(F)(F)F)C(F)(F)F,7.21%
22,Cc1ccc(-c2nc(C)sc2CC(=O)Nc2cccc(C)c2C)cc1,4.47%
23,COc1cc(OC)nc(NC2OC(=O)c3ccccc32)n1 (stereo not drawn),9.28%

row,Structure (SMILES),"hERG current change (%, negative = inhibition) at 1uM"
1,COC(=O)C(Cc1ccc(O)cc1)NC(=O)C12CC3CC(CC(C3)C1)C2 (stereo not drawn),15.2%
2,CC(C)(C)c1ccc(C(=O)N2CCC3(CC2)NCCc2[nH]cnc23)cc1,9.93%
3,COC(=O)c1c(C(=O)OC)c(-c2ccccc2)n2c1CCC2,5.69%
4,O=S(=O)(Nc1ccc(C(F)(F)F)cc1)c1cnc[nH]1,13.1%
5,Cc1ccc(S(=O)(=O)CC(=O)N2CCCC2)cc1,3.78%
6,COc1ccc(OC)c(S(=O)(=O)N2Cc3ccccc3CC2C(=O)O)c1 (stereo not drawn),2.8%
7,CC(C)OC(=O)CSc1nnc(-c2cnccn2)n1-c1ccc(Cl)cc1,-1.22%
8,Cc1cc(C)c2nc(C(F)(F)F)c(C#N)c(N)c2c1,10.6%
9,Cc1cc(Cl)cc(Br)c1OCCNCC(C)O (stereo not drawn),8.08%
10,Cc1ccc(Nc2ncnc(N)n2)cc1,6.31%
11,CN(CC(=O)Nc1ccc2c(c1)OCCO2)S(=O)(=O)c1ccc(Br)s1,14.2%
12,O=C(COc1ccccc1F)N1c2ccccc2CCc2ccccc21,10.8%
13,Cc1cc(C)c(C)c(S(=O)(=O)ON2C(=O)c3ccccc3C2=O)c1C,7.8%
14,COc1ccc(S(=O)(=O)N2CCOC2CNC(=O)C(=O)NCCN2CCOCC2)cc1 (stereo not drawn),12.6%
15,COc1cc(OC)c(S(=O)(=O)N2CCOCC2)cc1S(=O)(=O)N1CCOCC1,6.2%
16,Cc1ccc(C2Oc3ccccc3C3=C2C(c2cccs2)n2ncnc2N3)cc1 (stereo not drawn),3.38%
17,COc1ccccc1C(=O)N1CCNC(=O)C1CC(=O)Nc1cccc(C)c1 (stereo not drawn),12.3%
18,COc1ccc(OC)c(C(=O)c2coc3cc(Br)c(O)c(Br)c23)c1,8.23%
19,Cc1ccc(C)c(NS(=O)(=O)c2ccc(NC(=O)CSc3ccc(Cl)cc3)cc2)c1,9.54%
20,CC(C)(C)C(O)C(Cc1ccccc1Cl)n1cncn1 (stereo not drawn),10.3%
21,COc1cccc(COc2ccccc2C2Nc3ccc(Br)cc3C(=O)N2NC(=O)c2ccncc2)c1 (stereo not drawn),-0.308%
22,COc1cccc(-c2cc(C(=O)NCc3cccs3)no2)c1,7.46%
23,COc1ccc(-c2c(-c3ccc(O)cc3O)n[nH]c2C(F)(F)F)cc1,9.35%

row,Structure (SMILES),"hERG current change (%, negative = inhibition) at 1uM"
1,CN1C(=O)C(CC(=O)NCC2CCCCC2)SC1=Nc1ccccc1 (stereo not drawn),3.25%
2,COC(=O)C1=NN(C(=O)c2cccc(Br)c2)C(O)(c2ccc(Cl)cc2)C1 (stereo not drawn),14.6%
3,Cc1ccc(S(=O)(=O)NC(CC(=O)N2CCC3(CC2)OCCO3)c2ccco2)cc1 (stereo not drawn),9.12%
4,O=Cc1coc2ccc3ccccc3c2c1=O,14.3%
5,Cc1cccn2c(=O)nc(SCC(=O)N3CCCCCC3)nc12,3.17%
6,O=C(O)Cc1ccc(NS(=O)(=O)c2ccc3ccccc3c2)cc1,2.56%
7,CCN(C(=O)COC(=O)c1cc(-c2ccccc2)nc2c1c(C)nn2-c1ccccc1)C1CCS(=O)(=O)C1 (stereo not drawn),10.7%
8,CC(C)c1ccc(OCC(=O)NNC(=S)NC(=O)c2ccco2)c(Br)c1,3.25%
9,COc1cccc(C(=O)C2CCCN(Cc3cccc4c3OCO4)C2)c1 (stereo not drawn),-6.88%
10,O=C(N1CCOCC1)N1CCN(S(=O)(=O)N2CCCCC2)CC1,-1.58%
11,Cc1ccnc(SCc2cc(=O)c(OC(=O)c3ccco3)co2)n1,10.7%
12,COCCCN1CC(=O)N2C(c3ccccc3)c3[nH]c4ccccc4c3C[C@H]2C1=O (stereo partly drawn),11.9%
13,Cc1c(C(=O)N2CCOCC2)oc2ccc(Br)cc12,-14.4%
14,O=S(=O)(Nc1ccc(C(F)(F)F)cn1)c1ccccc1,13.5%
15,CC(C)Sc1nc2c(cnn2-c2ccc(F)cc2)c(=O)[nH]1,14.2%
16,Cc1ccccc1NC(=O)c1cnc2ccccn2c1=O,6.65%
17,Clc1ccc(OCc2nc(-c3ccccn3)no2)c(Br)c1,10.3%
18,CCOC(=O)Nc1cccc(OCC(=O)Nc2ccccc2OC)c1,10.7%
19,COc1ccc(CN2CC(C(=O)NCCc3ccc(C)cc3)CC2=O)cc1 (stereo not drawn),-2.06%
20,CC1(C)Cc2c(C#N)c(N)n(-c3ccccc3)c(=S)c2CO1,19.1%
21,Fc1ccccc1NC(=S)N1CCN(C/C=C/c2ccccc2)CC1,7.89%
